B1: MS2 coat protein; the commonest letter at each place (parent)
chain: MASNFTQFVLVDNGGTGDVTVAPSNFANGVAEWISSNSRSQAYKVTCSVRQSSAQNRKYTIKVEVPKVATQTVGGVELPVAAWRSYLNMELTIPIFATNSDCELIVKAMQGLLKDGNPIPSAIAANSGIY

Variants of: B1
Assay: apparent fitness score (VLP assembly selection enrichment vs plasmid library) (log10 ratio); higher = better expression / assembly into well-formed VLPs
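Further: counts from Illumina MiSeq reads, cDNA of packaged RNA versus plasmid DNA taken before selection, each replicate independent from library construction onward, expression induced with 0.1% arabinose.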

Apparent fitness score (log10), by site and new letter:
D115: E 0.841; F -0.819; G -0.0736; H 0.976; I < -4; K 0.718; L -0.718; M < -4; N 1.04; P 0.76; Q 0.772; R 0.476; S 0.866; T 1.04; V -0.909; W 0.443; Y 0.0219
G116: A < -4; C -1.33; D -0.668; E < -4; F -1.37; H < -4; I -1.07; K -2; L < -4; M -1.17; N < -4; P -0.139; Q < -4; R -1.5; S -1.37; T -0.501; V -1.1; W -0.771; Y -1.6
N117: A 0.73; C < -4; D 0.0654; E -1.12; F -1.49; G -1.09; H 1.03; I -0.771; K -0.428; L -0.911; M < -4; P < -4; Q -0.00255; R -0.997; S -0.212; T -0.361; V -0.58; W -0.215; Y -0.817
P118: A -1.03; C -0.663; D -0.15; E < -4; F -1.29; G -1.18; H < -4; K -0.762; L 0.427; M < -4; N < -4; Q 0.151; R -1.41; S -0.241; T -0.0849; V < -4; W 0.183
I119: A -1.33; C < -4; D -0.942; E -0.987; F -0.684; G -0.984; H -0.452; K -0.333; L -1.2; M < -4; N 0.373; P < -4; Q -0.773; R -1.51; S -1.6; T -0.141; V 0.658; W < -4; Y < -4
P120: A 0.17; C -0.0255; D < -4; E -0.891; F -0.749; G < -4; H < -4; I < -4; K -1.41; L -1.73; M -0.331; N < -4; Q < -4; R < -4; S -0.526; T < -4; V -0.678; W -1.3; Y < -4
S121: A 0.648; C 1.13; D 0.667; E 0.837; F -1.69; G 0.776; H -0.643; I 0.464; K -0.00271; L 0.903; M 0.805; N -0.418; P < -4; Q 0.758; R 0.29; T 0.515; V 0.554; W -1.19; Y < -4
A122: C 0.577; D < -4; E < -4; F -0.653; G -1.04; H < -4; I -0.851; K -0.804; L -1.35; M -0.452; N -1.47; P < -4; Q < -4; R -1.46; S -1.5; T < -4; V < -4; W < -4; Y -1.53
I123: A < -4; C -1.1; D < -4; E -1.37; F < -4; G -1.53; H < -4; K 0.452; L -1.28; M -0.349; N < -4; P < -4; Q 0.151; R -0.596; S < -4; T < -4; V < -4; W -0.682; Y < -4
A124: C 0.585; D < -4; E -0.201; F -1.53; G 0.703; H -0.81; I -0.935; K 0.146; L -1.77; M -0.402; N < -4; P < -4; Q 0.215; R -1.09; S 0.991; T -0.725; V -0.488; W -0.548; Y -1.41
A125: C 0.705; D -0.929; E < -4; F -0.576; G -0.201; H 0.643; I < -4; K 0.689; L 0.747; M 1.22; N 0.59; P < -4; Q 0.756; R 1.08; S 0.596; T 0.662; V 0.512; W -1.5; Y < -4
N126: A < -4; C < -4; D -0.896; E < -4; F -1.38; G -1.44; H < -4; I < -4; K < -4; L -1.08; M < -4; P < -4; Q < -4; R -0.929; S -1.37; T -1.02; V < -4; W -1.03; Y < -4
S127: A 0.0457; C -1.31; D < -4; E -1.37; F < -4; G 0.604; H 0.943; I < -4; K -0.315; L -0.359; M < -4; N < -4; P < -4; Q < -4; R -0.65; T -0.817; V 0.177; W < -4; Y -0.624
G128: A 0.753; C < -4; D < -4; E < -4; F < -4; H < -4; I < -4; K < -4; L < -4; M -0.327; N < -4; P < -4; Q < -4; R -1.12; S -0.239; T -0.838; V < -4; W < -4; Y < -4
I129: F 0.644; K < -4; L 0.863; M -0.361; R < -4; S < -4; T < -4; V -1.44
Y130: H 0.456; K < -4
